About 4,200 (1.3%) of roughly 330,000 compounds were called active. The shares of active, inactive and inconclusive entries below differ from those in the screen. Calls come from the whole dose curve; as a rule, active = well fitted activation curve with a large enough effect; inconclusive = small, poorly fitted or top-dose-only effect; inactive = no such curve, though single readings can be large or run the other way. Where the call is inconclusive, the potency comes from a doubtful curve fit.
Experiment: qHTS screen for small molecules that induce genotoxicity in human embryonic kidney (HEK293T) cells expressing luciferase-tagged ELG1; note: nearly all actives have a fitted effect of over 60% in size
Details: HEK293T ELG1-luciferase reporter, luminescence, 16 h; series mostly up to 46 µM
Method in brief: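 Luminescence read-out: rising ELG1-luciferase signal, reflecting elevated ELG1 protein under genetic stress, flags genotoxic compounds. Cells were treated for 16 hr at 37 °C before ONE-Glo detection.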
In the case of `CCn1cnc2cc(NCc3ccc(OC)cc3)ccc21`, the Potency is reported as inconclusive: 14.6 µM [activator, partial curve]. For `CCOc1ccc(NS(=O)(=O)c2ccc(C(=O)NCC(c3ccc(OC)cc3)N3CCOCC3)cc2)cc1` (stereo not given), the Potency was “inactive”. With `COc1ccc(-c2csc(Nc3cccc(C)n3)n2)cc1C` the Potency was inconclusive: 4.61 µM [activator, full curve]. With `COc1ccc(CNC(=O)Cn2nc(-c3ccc4c(c3)OCCO4)ccc2=O)cc1` the Potency was “inactive”. For `Cc1ccc(C(=O)Nn2cnc3ccccc3c2=O)cc1C`, the Potency was inconclusive: 11.6 µM [activator, partial curve, poor fit]. For `O=C(COc1ccc(Br)cc1)N1CCc2ccccc21`, the Potency was inconclusive: 18.3 µM [activator, partial curve]. For `CN1CCN(C(=O)c2cnn3c(C(F)(F)F)cc(-c4ccc5c(c4)OCO5)nc23)CC1`, the Potency was inconclusive: 23.1 µM [activator, partial curve, poor fit]. With `CCCC(C(=O)NC(C)(C)C)N(Cc1ccc(F)cc1)C(=O)c1snc(C(N)=O)c1N` (stereo not given) the Potency was “inactive”. With `Cc1ccc(OCCn2cnc3ccccc3c2=O)c([N+](=O)[O-])c1` the Potency was inconclusive: 6.51 µM [activator, partial curve]. In the case of `Cc1ccc(NC(=O)CCOc2ccccc2C)cc1C`, the Potency is reported as inconclusive: 18.3 µM [activator, partial curve, poor fit]. With `C/C(=N\NC(=O)C1CC1)c1ccc(NC(=O)c2ccc(Br)o2)cc1` the Potency was inconclusive: 23.1 µM [activator, single point]. With `Cc1cc(NC(=O)COc2ccccc2C)no1` the Potency was inconclusive: 20.6 µM [activator, single point]. For `O=C(CCCOc1ccc(Cl)cc1Cl)N1CCCc2ccccc21`, the Potency was inconclusive: 23.1 µM [activator, partial curve, poor fit]. With `O=C(O)c1ccc(Nc2nc(-c3cc4ccccc4oc3=O)cs2)cc1O` the Potency was “inactive”. For `COc1ccc(-c2nn(-c3ccccc3)cc2C(=O)N2CCOCC2)cc1`, the Potency was “inactive”. With `CC1CCN(C(=O)c2ccc3c(c2)OCCO3)CC1` the Potency was inconclusive: 13 µM [activator, partial curve]. With `c1ccc(COc2ccc(OCCn3cncn3)cc2)cc1` the Potency was active: 9.2 µM. With `COc1ccc(-n2nc3cc(C)c(NC(=O)C(C)C)cc3n2)cc1` the Potency was inconclusive: 0.366 µM [activator, partial curve, poor fit]. In the case of `O=C(C1CC(c2ccc(F)cc2)=NO1)N1CCCCC1` (stereo not given), the Potency is reported as inconclusive: 18.4 µM [activator, partial curve]. With `COc1cccc(/C=C2\SC(=S)N(CCCC(=O)Nc3ccc(C(=O)O)cc3)C2=O)c1` the Potency was “inactive”. For `O=C(O)c1cc(N/N=C/C=C/c2ccccc2[N+](=O)[O-])ccc1Cl`, the Potency was inconclusive: 10.3 µM [activator, partial curve, poor fit]. In the case of `Fc1ccccc1Nc1nc2ccccc2n2nnnc12`, the Potency is reported as active: 13 µM. With `COc1ccc2c(c1OC)C(=O)N(c1cccc(C(F)(F)F)c1)C2` the Potency was inconclusive: 2.24 µM [activator, full curve]. In the case of `Cc1nc(NC(=O)c2ccccc2)sc1-c1csc(Nc2cccc(Cl)c2)n1`, the Potency is reported as “inactive”. With `CCc1ccc(NC(=O)Nc2cccs2)cc1` the Potency was inconclusive: 1.84 µM [activator, full curve]. With `COc1ccc(-c2cc(-c3ccccc3)c(C#N)c(S(C)(=O)=O)n2)cc1` the Potency was inconclusive: 32.6 µM [activator, partial curve, poor fit]. In the case of `COc1ccc(Cl)cc1N1C(=O)/C(=C\c2sccc2C)N=C1SCC(=O)NC1CC1`, the Potency is reported as “inactive”. With `CCC1(C)Cc2c(sc3nc(NN)n(C)c(=O)c23)CO1` (stereo not given) the Potency was inconclusive: 25.9 µM [activator, single point]. For `Cc1cnc(NC(=O)c2cccs2)s1`, the Potency was inconclusive: 3.55 µM [activator, partial curve]. For `CC(C)Cc1nnc(NC(=O)C2CCCC2)s1`, the Potency was inconclusive: 20.6 µM [activator, partial curve, poor fit]. For `COc1ccc(-c2nnc(SCC(=O)NCc3cccs3)n2CC(C)C)cc1`, the Potency was “inactive”. In the case of `Oc1ccc(Cl)cc1/C=C/c1ccc2cccc(O)c2n1`, the Potency is reported as inconclusive: 29.1 µM [activator, single point]. In the case of `O=C(NN=C1CCCC1)c1ccccc1O`, the Potency is reported as “inactive”. For `O=c1nc2n(c3c1oc1ccccc13)Cc1ccccc1-2`, the Potency was inconclusive: 18.4 µM [activator, partial curve, poor fit]. With `Cc1ccc(/C=C/C(=O)NCCCc2ccccc2)cc1` the Potency was “inactive”. With `COc1ccc(S(=O)(=O)Nc2ccccc2OC)cc1NC(=O)c1cc2ccccc2oc1=O` the Potency was inconclusive: 16.4 µM [activator, partial curve]. In the case of `O=C(O)c1ccc(/C=C/c2ccc3cccc(O)c3n2)cc1`, the Potency is reported as inconclusive: 2.91 µM [activator, full curve, poor fit]. In the case of `Oc1ccc(Nc2nc3ccccc3nc2Nc2ccc(O)cc2)cc1`, the Potency is reported as inconclusive: 23.1 µM [activator, partial curve, poor fit]. With `Oc1c(N=Nc2ccccn2)ccc2ccccc12` the Potency was inconclusive: 2.59 µM [activator, partial curve, poor fit]. In the case of `COc1ccccc1Cn1nc(C(=O)O)c2ccccc2c1=O`, the Potency is reported as inconclusive: 18.3 µM [activator, single point]. In the case of `Oc1cccc2ccc(/C=C/c3c(F)cccc3Cl)nc12`, the Potency is reported as active: 14.6 µM. In the case of `Cc1cc(=O)oc2cc(OC(C)C(=O)N3CCCc4ccccc43)ccc12` (stereo not given), the Potency is reported as inconclusive: 16.4 µM [activator, partial curve]. For `Clc1ccc(-c2nnc(-c3ccco3)o2)cc1`, the Potency was inconclusive: 10.3 µM [activator, partial curve]. In the case of `O=C(NCCc1cn2ccsc2n1)c1cccs1`, the Potency is reported as inconclusive: 23.1 µM [activator, partial curve]. In the case of `COC(=O)CSc1nc2cc3c(cc2cc1C#N)OCO3`, the Potency is reported as inconclusive: 2.59 µM [activator, partial curve]. With `O=C(CCNC(=O)c1ccccc1)NCc1ccccc1F` the Potency was “inactive”. For `Cn1c(=O)c2c(nc(NCC3CCCC(CN)C3)n2Cc2ccc(Cl)cc2Cl)n(C)c1=O` (stereo not given), the Potency was inconclusive: 16.4 µM [activator, single point]. In the case of `Cc1ccc(C(=O)N/N=C/c2ccc3c(c2)OCO3)o1`, the Potency is reported as inconclusive: 20.6 µM [activator, partial curve]. In the case of `COc1ccccc1Nc1nc(C2(C)CCC(=O)O2)cs1` (stereo not given), the Potency is reported as “inactive”. In the case of `O=C(CSc1ccccc1)Nc1ccc2sccc2c1`, the Potency is reported as “inactive”. For `C=CCC(C(=O)NC(C)c1ccccc1)C(=O)NC(C)c1ccccc1` (stereo not given), the Potency was “inactive”. With `O=C(CC1CCCC1)Nc1ccc(Br)cc1` the Potency was inconclusive: 18.3 µM [activator, partial curve, poor fit]. With `O=C(NCCc1ccccc1)c1cccnc1` the Potency was active: 13 µM. With `CCOc1ccc(-c2nc(-c3cccnc3)no2)cc1` the Potency was inconclusive: 2.06 µM [activator, partial curve]. For `Nc1ccccc1SC(C[N+](=O)[O-])c1ccccc1` (stereo not given), the Potency was inconclusive: 20.6 µM [activator, single point]. For `Cn1c(/C=C/c2ccccc2)nc2ccccc21`, the Potency was inconclusive: 0.231 µM [activator, full curve]. With `O=[N+]([O-])c1ccc(F)cc1OCc1nc(-c2cccs2)no1` the Potency was inconclusive: 8.2 µM [activator, partial curve]. For `O=S(=O)(Cc1cc(-c2ccc(Cl)cc2)no1)c1ccccc1`, the Potency was active: 9.2 µM. With `O=C(Nc1ccc(CN2CCOCC2)cc1)c1cc2ccccc2o1` the Potency was “inactive”. In the case of `O=C(Nc1ncccc1O)c1ccc2c(c1)OCCO2`, the Potency is reported as active: 20.6 µM. In the case of `Cc1noc(C)c1COc1ccc(C(=O)OCC(=O)Nc2ccc(C(=O)N(C)C)cc2)cc1`, the Potency is reported as “inactive”. In the case of `COc1ccc(/C=C2\SC(=O)N(CCC(=O)NCCCn3ccnc3)C2=O)cc1`, the Potency is reported as inconclusive: 16.4 µM [activator, partial curve, poor fit]. In the case of `Cc1c(-c2nc(N)nc(Nc3ccccc3)n2)oc2ccccc12`, the Potency is reported as active: 7.31 µM. In the case of `O=C(O)CC(c1cccc2ccccc12)N1Cc2ccccc2C1=O` (stereo not given), the Potency is reported as “inactive”. With `O=C(NCCCN1CCOCC1)c1cccc(S(=O)(=O)NCc2ccccc2)c1` the Potency was “inactive”. With `Cc1nnc(SCC(=O)Nc2nc(-c3ccc(F)cc3)cs2)[nH]c1=O` the Potency was “inactive”. For `CCOC(=O)c1cnc2c(N=Nc3ccccc3)c(N)nn2c1N`, the Potency was inconclusive: 0.58 µM [activator, full curve]. For `COC(=O)c1ccc2c(CCO)c[nH]c2c1`, the Potency was inconclusive: 20.6 µM [activator, partial curve, poor fit]. For `O=Cc1ccc(Oc2ncccn2)cc1`, the Potency was inconclusive: 5.17 µM [activator, partial curve, poor fit]. In the case of `Cc1ccccc1Nc1nnc(SCC(=O)NC(=O)Nc2ccc3c(c2)OCCO3)s1`, the Potency is reported as inconclusive: 29.1 µM [activator, single point]. With `Nc1nc(-c2ccc(F)cc2)cs1` the Potency was inconclusive: 23.1 µM [activator, partial curve, poor fit]. For `O=C(CNC(=O)C1CCCCC1)OC(C(=O)c1ccccc1)c1ccccc1` (stereo not given), the Potency was “inactive”. For `O=C(O)c1ccccc1-c1csc(-c2ccccc2)n1`, the Potency was inconclusive: 18.3 µM [activator, single point]. For `Cc1ccc(NC(=O)CCNC(=O)c2ccc(Cl)cc2)nc1`, the Potency was inconclusive: 23.1 µM [activator, partial curve, poor fit]. In the case of `CCC1Oc2ccc(C)cc2N(CC(=O)N2CCCC2)C1=O` (stereo not given), the Potency is reported as “inactive”.
Potency is the fitted concentration of half-maximal effect; tags give direction and shape of the fitted curve.
